Screen size: about 270,000 compounds; about 5,800 (2.1%) were called active. The inconclusive results got no clear call from the source; some entries with a clear call stand among them for comparison. The call rests on the fitted dose curve; in most records, active means well fitted inhibition curve with a large enough effect; inconclusive means small, poorly fitted or top-dose-only effect; inactive means flat fitted curve, though single readings scatter. A potency beside an inconclusive call is a rough fit, not a confirmed value.
Target: Microtubule-associated protein tau (Homo sapiens) (UniProt P10636)
UniProt P10636, sequence (P10636 whole entry, looked up): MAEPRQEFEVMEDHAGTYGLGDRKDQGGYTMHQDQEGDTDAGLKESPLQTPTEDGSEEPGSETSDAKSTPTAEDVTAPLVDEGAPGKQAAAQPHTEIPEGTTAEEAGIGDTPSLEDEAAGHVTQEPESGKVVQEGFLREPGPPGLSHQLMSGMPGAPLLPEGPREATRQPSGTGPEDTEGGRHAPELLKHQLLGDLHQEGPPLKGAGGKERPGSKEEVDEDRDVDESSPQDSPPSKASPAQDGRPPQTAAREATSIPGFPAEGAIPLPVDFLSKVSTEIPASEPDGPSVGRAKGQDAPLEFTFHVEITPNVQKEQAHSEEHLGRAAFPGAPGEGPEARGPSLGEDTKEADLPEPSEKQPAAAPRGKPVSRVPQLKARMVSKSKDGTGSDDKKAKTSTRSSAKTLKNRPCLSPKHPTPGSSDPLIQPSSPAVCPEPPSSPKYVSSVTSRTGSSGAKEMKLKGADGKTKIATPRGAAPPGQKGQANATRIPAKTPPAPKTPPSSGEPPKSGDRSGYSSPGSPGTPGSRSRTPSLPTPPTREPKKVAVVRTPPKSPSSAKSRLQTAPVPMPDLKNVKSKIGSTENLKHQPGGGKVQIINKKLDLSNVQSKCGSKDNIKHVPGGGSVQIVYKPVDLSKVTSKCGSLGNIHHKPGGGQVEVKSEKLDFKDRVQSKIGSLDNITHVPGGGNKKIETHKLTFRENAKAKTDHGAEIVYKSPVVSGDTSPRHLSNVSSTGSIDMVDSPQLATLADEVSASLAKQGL
Experiment: qHTS for Inhibitors of Tau Fibril Formation, Thioflavin T Binding; further: nearly all actives have a fitted effect of over 55% in size
Settings: recombinant tau K18 P301L, heparin-induced fibrillization, ThT fluorescence; series mostly up to 57.4 µM; activity, negative = inhibition: at the top concentration
Procedure, shortened: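 Fibril formation assay: tau K18 P301L at 15 uM with trace Alexa 594 label, heparin inducer 20 uM, pH 7 sodium acetate buffer, 37 C for 6 hr; endpoint ThT signal.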
On the % scale 0 is the no-effect control and ±100 the full control effect; potency means the concentration at half of the fitted maximal effect; tags describe the fitted curve by direction and shape.

SMILES	Potency	activity, negative = inhibition
CC1CCCC(C)N1/N=C/C=C/c1ccccc1[N+](=O)[O-] (stereo not given)	inconclusive: 35.5 µM [inhibitor, single point]	–
COc1ccc(N2CCN(c3ncnc4c3cnn4-c3ccc(C)cc3C)CC2)cc1	inconclusive: 2.82 µM [inhibitor, full curve]	–
CCCCN1C(=O)C(=Nc2cccc3cnccc23)c2ccccc21	inconclusive: 14.1 µM [inhibitor, partial curve]	–
CCOc1ccc2nc(SCC(=O)N3CCCCCC3)c(C#N)cc2c1	–	inactive: -16%
O=C(c1ccco1)N1CCN(C(c2cccs2)c2nnnn2C2CCCCC2)CC1 (stereo not given)	–	inactive: 1.58%
Cc1ccc(Nc2c(-c3ccc(C)o3)nc3cccc(C)n23)cc1	inconclusive: 39.8 µM [inhibitor, single point]	–
Cc1[nH]n(-c2ccc(Br)cc2)c(=O)c1C=Nc1ccc(S(=O)(=O)Nc2nccs2)cc1	active: 15.8 µM	–
CCC1CCCCN1C(=O)CCS(=O)(=O)c1cc2c(cc1C)NC(=O)CO2 (stereo not given)	inconclusive: 3.98 µM [inhibitor, full curve, poor fit]	–
Cc1nn(-c2ccc(F)cc2)c(Cl)c1/C=C1\C(=O)Nc2ccccc21	inconclusive: 25.1 µM [inhibitor, partial curve]	–
COc1cccc2sc(Nc3nc(-c4ccncc4)cs3)nc12	inconclusive: 3.98 µM [inhibitor, full curve]	–
COc1ccccc1NC(=O)c1cc2n(n1)C(C(F)(F)F)CC(c1ccc3c(c1)OCO3)N2 (stereo not given)	inconclusive: 20 µM [inhibitor, partial curve]	–
Cc1cc(/C=N/NC(=O)c2c(Br)cnn2C)c(C)n1-c1cccc(Br)c1	inconclusive: 31.6 µM [inhibitor, single point]	–
Cc1ccc2c(N)c(C(=O)c3ccccc3)sc2n1	inconclusive: 25.1 µM [inhibitor, partial curve]	–
COc1ccccc1N1CCN(C(=O)CCNS(=O)(=O)c2ccc(Br)s2)CC1	–	inactive: -5.39%
O=C(COc1ccc(Br)cc1Cl)NC(=S)N1CCc2ccccc21	inconclusive: 14.1 µM [inhibitor, partial curve]	–
CCOc1ccc(CCNC(=O)C2CCN(c3nn4c(=O)cc(C)nc4s3)CC2)cc1	inconclusive: 2 µM [inhibitor, partial curve]	–
Cc1ccc(C(=O)ONc2ccc(N=NC(=O)c3ccccc3O)cc2)cc1	active: 2.24 µM	–
Brc1ccc(/C=N/Nc2ccccc2)cc1	inconclusive: 14.1 µM [inhibitor, partial curve]	–
O=C(C1CCC(CNS(=O)(=O)c2ccc(F)cc2)CC1)N1CCOCC1 (stereo not given)	–	inactive: -1.95%
CCCc1cc(=O)[nH]c(SCc2cc(=O)oc3cc(C)c(C(C)C)cc23)n1	inconclusive: 22.4 µM [inhibitor, single point]	–
CC(=NCc1ccc2c(c1)OCO2)C1=C(O)c2ccccc2C1=O	inconclusive: 35.5 µM [inhibitor, single point]	–
COC(=O)/C=C/c1ccc(OC(=O)OC)c(OC(=O)OC)c1	inconclusive: 15.8 µM [inhibitor, partial curve]	–
CCOC(=O)C1(CC2CCCCO2)CCN(C(=O)Nc2ccc(C)c(C)c2)CC1 (stereo not given)	–	inactive: -8.08%

SMILES	Potency	activity, negative = inhibition
CCOC(=O)c1c(C)[nH]c(O)c1C=Nc1ccccc1	inconclusive: 12.6 µM [inhibitor, partial curve]	–
Cc1cccc(N2CCN(C(=O)c3cc4c(=O)n(C)c5ccccc5c4n3C)CC2)c1C	inconclusive: 14.1 µM [inhibitor, partial curve]	–
O=C(CC(C(=O)O)c1c[nH]c2ccccc12)c1ccccc1 (stereo not given)	inconclusive: 8.91 µM [inhibitor, partial curve, poor fit]	–
Cc1cccn2c(=O)c(/C=C(\C#N)C(=O)NC3CCS(=O)(=O)C3)c(N3CCC(C(N)=O)CC3)nc12 (stereo not given)	–	inactive: 2.26%
CC(=O)c1ccc(NC(=O)CSc2nnc(N)s2)cc1	inconclusive: 17.8 µM [inhibitor, partial curve]	–
Cn1cc(/C=C2\SC(=S)N(NC(=O)c3ccccc3Cl)C2=O)c2ccccc21	active: 1.12 µM	–
CCOC(=O)c1cnc(-n2cc(C)cn2)nc1Nc1ccccc1OCC	–	inactive: -12%
Cc1ccc(NC(=O)C(=O)c2c(-c3ccccc3)cc3ccccn23)cc1S(=O)(=O)N1CCOCC1	inconclusive: 35.5 µM [inhibitor, partial curve]	–
NS(=O)(=O)c1ccc(NC(=S)NCc2ccco2)cc1	inconclusive: 39.8 µM [inhibitor, single point]	–
CCCSc1nc2c(c(=O)[nH]c(=O)n2C)n1Cc1ccc(C)cc1	–	inactive: -10.9%
O=C(Nc1ccc(F)cc1)c1cc2cc3ccc(Cl)cc3nc2o1	–	inactive: -11.3%
Cc1ccc(-c2noc(-c3nnn(-c4ccc(Br)cc4F)c3C)n2)cc1	–	inactive: -12.5%
Clc1ccccc1CN1CCc2nc(N3CCN(c4ncccn4)CC3)ncc2C1	inconclusive: 15.8 µM [inhibitor, partial curve, poor fit]	–
Cc1nn(CC(=O)OCC(=O)Nc2c(C(C)C)cccc2C(C)C)c(C)c1[N+](=O)[O-]	–	inactive: 4.31%
CCOc1ccc2nc(N3C(=O)/C(=C/c4ccccc4)NC3=S)sc2c1	active: 3.55 µM	–
COC(=O)CCC(=O)OC1(C)C(=O)C=C2C=C(C3CC3)N(CC(C)C)C=C2C1=O (stereo not given)	inactive	–
COc1ccc(-n2ncc3c2ncn2nc(Cc4ccccc4)nc32)cc1	inconclusive: 1.58 µM [inhibitor, partial curve]	–
CC1CCc2nc(NC(=O)CN3CCN(Cc4ccc5c(c4)OCO5)CC3)sc2C1 (stereo not given)	inconclusive: 25.1 µM [inhibitor, single point]	–
S=C(NCCCn1ccnc1)Nc1cccc(Cl)c1	–	inactive: -2.04%
COc1ccc(NC(=O)Cn2c(=O)n(Cc3ccco3)c(=O)c3oc4ccccc4c32)cc1Cl	–	inactive: 19.3%
COc1ccc(NC2CC(=O)N(c3ccc(C(=O)O)cc3)C2=O)cc1 (stereo not given)	inconclusive: 14.1 µM [inhibitor, partial curve]	–
CCn1c(O)c(/C=N/N=C/c2ccccc2)c2ccc(C3=NNC(=O)CC3)cc21	inconclusive: 1.12 µM [inhibitor, full curve]	–

Source: PubChem BioAssay AID1460 (National Center for Advancing Translational Sciences (NCATS), 2008)
